For 40 compounds, cytotoxicity call and growth inhibition call results are on record in the antibiotic and cytotoxicity screens of Wong et al. (2023).

Molecules are shown by their SMILES. This is one part of the list.

One assay has as its system HepG2. Briefly: cytotoxicity call (relative viability < 0.9). The settings on record: 10 µM.
For `Cc1ccc(S(=O)(=O)N(C)C[C@H]2OCCCC[C@@H](C)Oc3ccc(NC(=O)Nc4ccccc4)cc3C(=O)N([C@H](C)CO)C[C@@H]2C)cc1`, the cytotoxicity call was “inactive”.

As to `O=C(C[C@H]1C[C@@H]2c3cc(NC(=O)c4ccc5c(c4)OCO5)ccc3O[C@@H]2[C@H](CO)O1)NCC(F)(F)F`, the cytotoxicity call was “inactive”.

Turning to `C/C=C/c1ccc2c(c1)O[C@@H](CN(C)S(=O)(=O)c1ccc(C)cc1)[C@@H](C)CN([C@H](C)CO)S2(=O)=O`, the cytotoxicity call was “inactive”.

Regarding `CC(C)(C)NCC(O)COc1ccccc1C1CCCC1.O=S(=O)(O)O` (configuration not stated), the cytotoxicity call is “active”.

As for `C[C@H](CO)N1C[C@H](C)[C@H](CN(C)C(=O)NC2CCCCC2)OCCCC[C@H](C)Oc2ccc(NC(=O)c3ccccc3)cc2C1=O`, the cytotoxicity call was “inactive”.

Regarding `C[C@H](O)C#Cc1cnc2c(c1)C(=O)N([C@H](C)CO)C[C@@H](C)[C@H](CN(C)C(=O)Nc1ccc(C(F)(F)F)cc1)O2`, the cytotoxicity call was “inactive”.

On to `C[C@H](O)C#Cc1ccc2c(c1)O[C@@H](CN(C)C(=O)Cc1ccccn1)[C@@H](C)CN([C@H](C)CO)S2(=O)=O`, for which the cytotoxicity call is “inactive”.

On to `CC(=O)N1CCNCC1`, for which the cytotoxicity call was “inactive”.

`COc1ccc2c3c([nH]c2c1)[C@H](CO)N(C[C@]13CCN(CC1)C(=O)NC(C)C)C(=O)CN1CCOCC1`: the cytotoxicity call is “inactive”.

As to `C[C@@H]1CN([C@@H](C)CO)C(=O)c2cc(NC(=O)c3ccncc3)ccc2O[C@@H]1CN(C)Cc1ccncc1`, the cytotoxicity call was “inactive”.

For `C[C@@H]1CN([C@@H](C)CO)C(=O)c2cc(NS(=O)(=O)c3ccccc3)ccc2O[C@H]1CN(C)C(=O)Nc1cccc2ccccc12`, the cytotoxicity call was “inactive”.

Turning to `COc1ccc(S(=O)(=O)N(C)C[C@@H]2Oc3cc(C4=CCCC4)ccc3S(=O)(=O)N([C@@H](C)CO)C[C@@H]2C)cc1`, the cytotoxicity call is “inactive”.

As to `CC(C)NC(=O)N(C)C[C@@H]1Oc2c(NS(=O)(=O)c3ccccc3)cccc2C(=O)N([C@@H](C)CO)C[C@H]1C`, the cytotoxicity call was “inactive”.

As for `COCC#Cc1ccc2c(c1)O[C@@H](CN(C)S(=O)(=O)c1ccc(F)cc1)[C@H](C)CN([C@H](C)CO)S2(=O)=O`, the cytotoxicity call is “inactive”.

`C[C@H](CO)N1C[C@H](C)[C@H](CN(C)C(=O)c2cccnc2)Oc2ncc(-c3ccc(C(=O)N(C)C)cc3)cc2C1=O`: the cytotoxicity call is “inactive”.

For `C[C@H](CO)N1C[C@H](C)[C@H](CN(C)S(=O)(=O)c2ccccc2)Oc2ccc(NC(=O)Cn3cnnn3)cc2C1=O`, the cytotoxicity call is “inactive”.

Take `CC(=O)N[C@H]1[C@H](O/N=[N+](\[O-])N2CCCC2)O[C@H](CO)[C@@H](O)[C@@H]1O`: the cytotoxicity call is “inactive”.

`C[C@H](CO)N1C[C@H](C)[C@@H](CN(C)Cc2ccccc2C(F)(F)F)OCc2ccccc2-c2c(n(C)c3ccccc23)C1=O`: the cytotoxicity call was “inactive”.

In the case of `NC(=O)N1Cc2nccn2C[C@H](Cn2ncccc2=O)C1`, the cytotoxicity call is “inactive”.

Consider `COc1ccc(NC(=O)Nc2ccc3c(c2)C(=O)N([C@@H](C)CO)C[C@H](C)[C@@H](CN(C)C(=O)Nc2ccc(C(F)(F)F)cc2)OCCCC[C@H](C)O3)cc1`, for which the cytotoxicity call was “inactive”.

With `COc1ccccc1CNC(=O)C[C@H]1C[C@H]2c3cc(NC(=O)NC4CCCC4)ccc3O[C@H]2[C@@H](CO)O1`, the cytotoxicity call was “inactive”.

On to `COc1ccccc1C#Cc1ccc2c(c1)O[C@@H](CN(C)Cc1cncnc1)[C@@H](C)CN([C@H](C)CO)S2(=O)=O`, for which the cytotoxicity call is “inactive”.

Another assay concerns S. aureus RN4220. Briefly: growth inhibition call (relative growth <= 0.2). The conditions noted are these: 50 µM.
Turning to `C[C@@H]1CN([C@H](C)CO)C(=O)c2cc(NC(=O)C3CCCCC3)ccc2O[C@@H](C)CCCCO[C@H]1CN(C)C(=O)CCC(F)(F)F`, the growth inhibition call was “inactive”.

Consider `C=CCOC(=O)[C@H]1[C@@H]2C(=O)O[C@@H](c3ccccc3)[C@@H](c3ccccc3)N2[C@@H](c2ccc(OCCOC(=O)[C@@H]3C[C@@H]4C(=O)N[C@@H](CCCCNC(C)=O)C(=O)N4[C@@H]3c3cccc(OCCO)c3)cc2)[C@]12C(=O)Nc1ccc(I)cc12`, for which the growth inhibition call was “inactive”.

On to `CO[C@@H]1CN(C)C(=O)c2ccc(NC(=O)Nc3cccc(F)c3)cc2OC[C@@H](C)N(C(=O)Nc2c(C)noc2C)C[C@@H]1C`, for which the growth inhibition call is “inactive”.

With `C[C@@H]1CCCCO[C@H](CN(C)C(=O)Nc2ccccc2)[C@@H](C)CN([C@H](C)CO)C(=O)c2cc(NC(=O)CCC(F)(F)F)ccc2O1`, the growth inhibition call is “inactive”.

Regarding `Cc1noc(C)c1NC(=O)N(C)C[C@H]1Oc2c(NS(=O)(=O)c3ccccc3)cccc2C(=O)N([C@H](C)CO)C[C@H]1C`, the growth inhibition call was “inactive”.

With `COc1ccc(S(=O)(=O)N(C)C[C@@H]2Oc3c(NS(=O)(=O)c4cccs4)cccc3C(=O)N([C@H](C)CO)C[C@@H]2C)cc1`, the growth inhibition call was “inactive”.

`C[C@@H]1CCCCO[C@H](CN(C)C(=O)C2CCCCC2)[C@@H](C)CN([C@@H](C)CO)C(=O)c2cc(NC(=O)c3ccncc3)ccc2O1`: the growth inhibition call was “inactive”.

With `CO[C@@H]1CN(C)C(=O)c2cc(NC(=O)Nc3ccc(Cl)cc3)ccc2OC[C@H](C)N(C(=O)Nc2c(C)noc2C)C[C@H]1C`, the growth inhibition call was “inactive”.

For the compound `Cc1cc(=O)n(C(N)=S)[nH]1`, the growth inhibition call was “inactive”.

As to `C[C@@H](O)[C@H](N)C(=O)O`, the growth inhibition call is “inactive”.

Regarding `O=C(C[C@H]1C[C@H]2c3cc(NC(=O)NC4CCCC4)ccc3O[C@H]2[C@@H](CO)O1)NCc1ccc2c(c1)OCO2`, the growth inhibition call is “inactive”.

Take `C[C@H](CO)N1C[C@H](C)[C@@H](CN(C)C(=O)Cc2ccccc2)OCCCC[C@H](C)Oc2ccc(NS(=O)(=O)c3ccc(Cl)cc3)cc2C1=O`: the growth inhibition call is “inactive”.

`C[C@H](CO)N1C[C@H](C)[C@@H](CN(C)Cc2ccc(Oc3ccccc3)cc2)Oc2ccc(NC(=O)c3ccncc3)cc2CC1=O`: the growth inhibition call was “inactive”.

`OC[C@H]1O[C@H](O)[C@H](O)[C@@H](O)[C@@H]1O`: the growth inhibition call was “inactive”.

Take `CCCNC(=O)N1C[C@H](O)COC[C@H]2O[C@H](CC(=O)N3CCOCC3)CC[C@@H]21`: the growth inhibition call was “inactive”.

For the compound `COC(=O)C1=CO[C@@H](O[C@@H]2O[C@H](CO)[C@@H](O)[C@H](O)[C@H]2O)/C(=C\CO)[C@@H]1CC(=O)OCCc1ccc(O)cc1`, the growth inhibition call was “inactive”.

Consider `COc1ccc(NC(=O)N(C)C[C@@H]2Oc3ncc(C#C[C@H](C)O)cc3C(=O)N([C@@H](C)CO)C[C@@H]2C)cc1`, for which the growth inhibition call is “inactive”.

As to `Cc1noc(C)c1S(=O)(=O)Nc1cccc2c1O[C@@H](CN(C)Cc1ccc(Oc3ccccc3)cc1)[C@@H](C)CN([C@@H](C)CO)C2=O`, the growth inhibition call is “inactive”.

Regarding `Cc1ccc(S(=O)(=O)N(C)C[C@H]2OCCCC[C@@H](C)Oc3ccc(NC(=O)Nc4ccccc4)cc3C(=O)N([C@H](C)CO)C[C@@H]2C)cc1`, the growth inhibition call was “inactive”.

In the case of `O=C(C[C@H]1C[C@@H]2c3cc(NC(=O)c4ccc5c(c4)OCO5)ccc3O[C@@H]2[C@H](CO)O1)NCC(F)(F)F`, the growth inhibition call is “inactive”.

For `C/C=C/c1ccc2c(c1)O[C@@H](CN(C)S(=O)(=O)c1ccc(C)cc1)[C@@H](C)CN([C@H](C)CO)S2(=O)=O`, the growth inhibition call is “inactive”.

Consider `CC(C)(C)NCC(O)COc1ccccc1C1CCCC1.O=S(=O)(O)O` (configuration not stated), for which the growth inhibition call was “inactive”.

In the case of `C[C@H](CO)N1C[C@H](C)[C@H](CN(C)C(=O)NC2CCCCC2)OCCCC[C@H](C)Oc2ccc(NC(=O)c3ccccc3)cc2C1=O`, the growth inhibition call was “inactive”.

Take `C[C@H](O)C#Cc1cnc2c(c1)C(=O)N([C@H](C)CO)C[C@@H](C)[C@H](CN(C)C(=O)Nc1ccc(C(F)(F)F)cc1)O2`: the growth inhibition call is “inactive”.

For `C[C@H](O)C#Cc1ccc2c(c1)O[C@@H](CN(C)C(=O)Cc1ccccn1)[C@@H](C)CN([C@H](C)CO)S2(=O)=O`, the growth inhibition call is “inactive”.

As to `CC(=O)N1CCNCC1`, the growth inhibition call was “inactive”.

`COc1ccc2c3c([nH]c2c1)[C@H](CO)N(C[C@]13CCN(CC1)C(=O)NC(C)C)C(=O)CN1CCOCC1`: the growth inhibition call was “inactive”.

For `C[C@@H]1CN([C@@H](C)CO)C(=O)c2cc(NC(=O)c3ccncc3)ccc2O[C@@H]1CN(C)Cc1ccncc1`, the growth inhibition call was “inactive”.

Regarding `C[C@@H]1CN([C@@H](C)CO)C(=O)c2cc(NS(=O)(=O)c3ccccc3)ccc2O[C@H]1CN(C)C(=O)Nc1cccc2ccccc12`, the growth inhibition call was “inactive”.

On to `COc1ccc(S(=O)(=O)N(C)C[C@@H]2Oc3cc(C4=CCCC4)ccc3S(=O)(=O)N([C@@H](C)CO)C[C@@H]2C)cc1`, for which the growth inhibition call was “inactive”.

For `CC(C)NC(=O)N(C)C[C@@H]1Oc2c(NS(=O)(=O)c3ccccc3)cccc2C(=O)N([C@@H](C)CO)C[C@H]1C`, the growth inhibition call is “inactive”.

Turning to `COCC#Cc1ccc2c(c1)O[C@@H](CN(C)S(=O)(=O)c1ccc(F)cc1)[C@H](C)CN([C@H](C)CO)S2(=O)=O`, the growth inhibition call was “inactive”.

For the compound `C[C@H](CO)N1C[C@H](C)[C@H](CN(C)C(=O)c2cccnc2)Oc2ncc(-c3ccc(C(=O)N(C)C)cc3)cc2C1=O`, the growth inhibition call is “inactive”.

`C[C@H](CO)N1C[C@H](C)[C@H](CN(C)S(=O)(=O)c2ccccc2)Oc2ccc(NC(=O)Cn3cnnn3)cc2C1=O`: the growth inhibition call was “inactive”.

Turning to `CC(=O)N[C@H]1[C@H](O/N=[N+](\[O-])N2CCCC2)O[C@H](CO)[C@@H](O)[C@@H]1O`, the growth inhibition call is “inactive”.

`C[C@H](CO)N1C[C@H](C)[C@@H](CN(C)Cc2ccccc2C(F)(F)F)OCc2ccccc2-c2c(n(C)c3ccccc23)C1=O`: the growth inhibition call is “inactive”.

For `NC(=O)N1Cc2nccn2C[C@H](Cn2ncccc2=O)C1`, the growth inhibition call was “inactive”.

Take `COc1ccc(NC(=O)Nc2ccc3c(c2)C(=O)N([C@@H](C)CO)C[C@H](C)[C@@H](CN(C)C(=O)Nc2ccc(C(F)(F)F)cc2)OCCCC[C@H](C)O3)cc1`: the growth inhibition call was “inactive”.

As for `COc1ccccc1CNC(=O)C[C@H]1C[C@H]2c3cc(NC(=O)NC4CCCC4)ccc3O[C@H]2[C@@H](CO)O1`, the growth inhibition call is “inactive”.

In the case of `COc1ccccc1C#Cc1ccc2c(c1)O[C@@H](CN(C)Cc1cncnc1)[C@@H](C)CN([C@H](C)CO)S2(=O)=O`, the growth inhibition call was “inactive”.
